Assay results as given in PubChem BioAssay (NCI).
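48-hour exposure; five concentrations; linearly interpolated endpoints. GI50 marks 50% less growth. At the TGI there is no net growth.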

test system: NCI-H322M lung; assay: inhibition of tumour cell growth, NCI panel, 48 h

Row | Structure (SMILES) | GI50 [µM] | TGI [µM]
1 | Nc1c(C(=O)Nc2ccncc2)sc2nc3c(cc12)CCCCCCCC3 | 0.896 | 1.78
2 | Nc1ncnc2c1ncn2[C@@H]1C[C@@H]1CO |  | > 100
3 | Cc1ccc(NC(=O)CC2CC2)cc1-c1ccc(C(=O)NCC2CC2)cc1 | > 25 | > 25
4 | C/C=C(/C)C(=O)O[C@@H]1CCN2CC[C@H](COC(=O)/C(=C/C)CO)C12 (some centres not stated) |  | > 100
5 | CC(=O)c1sc(Nc2nnc(-c3ccc(-c4nnc(Nc5nc(C)c(C(C)=O)s5)o4)cc3)o2)nc1C |  | > 100
6 | C[C@H](CCC(=O)O)[C@H]1CC[C@H]2[C@@H]3CC[C@@H]4C[C@H](O)CC[C@]4(C)[C@H]3C[C@H](O)[C@]12C |  | > 100
7 | O=C(CC1(O)C(=O)N(Cc2ccccc2)c2ccc(F)cc21)c1ccc(C(=O)NCC2CCC3(CC2)OOC2(CCCCC2)OO3)cc1 (configuration not stated) | 5.16 | > 100
8 | CNCC#Cc1c(F)ccc2c1/C(=C/c1[nH]ccc1OC)C(=O)N2 | 0.271 | 2.48
9 | N#Cc1c(-c2ccc(Cl)cc2Cl)nc2[nH][nH]c(=S)n2c1=O |  | > 100
10 | COc1cccc2c1C(=O)c1c(O)c3c(c(O)c1C2=O)C[C@](O)(C(=O)CO)C[C@H]3O[C@@H]1C[C@@H](NC(=O)CCCCCN(C)C2(c3ccc(F)cc3)CC3CCC2C3)[C@H](O)[C@@H](C)O1 (some centres not stated) | 7.38 | 14
11 | O=C1/C(=C/c2ccccc2S)N=C(c2ccccc2)N1c1nc2c(Cl)cc(Cl)cc2s1 |  | 71.4
12 | Cc1[nH]c2ccccc2c1C(=O)/C=C/c1ccccc1O |  | > 100
13 | N#Cc1c2ccccc2cn1-c1ccc(F)cc1 |  | > 100
14 | COc1ccc(-c2nn(-c3ccc(NC(=O)c4ccc(Cl)c(Cl)c4)cc3)cc2-c2ccncc2)cc1Cl | > 50 | > 50
15 | COc1ccc(CC2NCCc3c2[nH]c2ccccc32)cc1 (configuration not stated) |  | > 100
16 | COC(=O)/C=C(\C)CC(O)/C=C(\C)CCC=C(C)C (configuration not stated) |  | > 100
17 | CCOC(=O)NC(Nc1ccc(S(=O)(=O)Nc2nc(C)cc(C)n2)cc1)(C(=O)OCC)C(F)(F)F (configuration not stated) |  | > 100
18 | O=C(Cn1c[n+](CC(=O)c2ccc(-c3ccccc3)cc2)c2ccccc21)Nc1cccc2cccnc12 | 2.8 | 11.1
19 | CCCCNC(=S)Nc1nc(C(=O)NNC(=S)Nc2ccccc2)cs1 |  | > 100
20 | COc1c(OC[C@H](O)CN2CCOCC2)ccc2c3n(c(=NC(=O)c4cccnc4C)nc12)CCN3 | 0.348 | > 50
21 | CO/N=C(\COc1ccc2c(c1)oc(=O)c1cc(OC)ccc12)c1ccc(OC)cc1 | > 100 | > 100
22 | COc1cc2c(C)cc(O)cc2c2cc(O)c(C)cc12 |  | 23.1
23 | O=C(/C=C/c1cc2ccccc2o1)N1CCN(c2ccccn2)CC1 |  | > 100
24 | Cc1cc(Cl)ccc1NC(=O)C(=O)Cc1nc2ccccc2o1 |  | > 100

Row | Structure (SMILES) | GI50 [µM] | TGI [µM]
25 | C[C@@H]1CC[C@@H]2[C@@H]1[C@H](OC(=O)/C=C/c1ccccc1)[C@]1(C3CCCCC3)C[C@@H](OC(=O)CO)[C@@]2(C)O1 | 6.12 | 19.9
26 | CCCNC(=S)NNC(=O)CSc1nc(-c2ccccc2)c(-c2ccccc2)[nH]1 |  | > 100
27 | O=C(O)CCC(NC(=O)c1ccc(Nc2nc3cc(C(F)(F)F)ccc3nc2-c2ccccc2)cc1)C(=O)O (configuration not stated) |  | > 100
28 | CCCN1C(=O)N(CCC)C2C1NC(=S)N2/N=C/C=C/c1ccccc1OC (configuration not stated) | 2.97 | > 100
29 | CCN1CCC(O)(c2ccc(OC)cc2)C(C(=O)c2ccc(OC)cc2)C1 (configuration not stated) |  | > 100
30 | CC1CN(C(=O)CN2CCC(CCCCN(C)C)CC2)c2ccccc2NC1=O (configuration not stated) |  | > 100
31 | COc1cc(-c2cc(-c3cc4c([nH]c5ccccc54)c(-c4cc(OC)c(OC)c(OC)c4)n3)cc(-c3ccccc3)n2)cc(OC)c1OC | 31.2 | > 100
32 | CC(CO)(CO)N1C(=O)C2C3C=CC(C3)C2C1=O (configuration not stated) |  | > 100
33 | CC(=O)c1[nH]c(NCc2ccccc2)c(C(=S)Nc2ccccc2)c1N |  | > 100
34 | O=C(c1ccccc1Br)C(F)(F)F |  | > 100
35 | CN1CCOC(c2ccccc2)O1 (configuration not stated) |  | > 100
36 | O=c1ccn([C@H]2CSC[C@@H](CO)C2)c(=O)[nH]1 |  | > 100
37 | CCCc1nc(NC#N)nc(C(=O)Nc2ccccc2)c1CC |  | > 100
38 | O=C1/C(=C/c2cccc(Cl)c2Cl)N=C(c2ccccc2)N1C1CC1 | 11.4 | 28
39 | NC(=O)C12CC3CC(CC(F)(C3)C1)C2 |  | > 100
40 | N#CC(C(=O)C(=O)C(C#N)c1ccc(Br)cc1)c1ccc(Br)cc1 (configuration not stated) |  | 25.9
41 | COc1ccc(-c2nc3ccc(-c4nc5ccc(N6CCN(c7ccccc7)CC6)cc5[nH]4)cc3[nH]2)cc1OC | 1.99 | 4.85
42 | CC#CCOC(=O)c1ccccc1OC(C)=O |  | > 100
43 | CN=C(N=Nc1c(O)[nH]c2ccccc12)SCC(=O)c1ccc(Br)cc1 |  | 58.1
44 | CCOC(=O)CN1C(=O)c2ccc(NC(=O)C(=O)O)cc2S1(=O)=O |  | > 100
45 | CCOC(=O)C(Cc1ccc(CCCC(=O)NCCC(=O)Nc2ccc3nc(C)sc3c2)cc1)C(=O)OCC | > 63.7 | > 100
46 | Fc1cc(-c2cc(-c3ccccc3)no2)c(Cl)cc1Cl |  | > 55.9
47 | CSc1nc(Nc2cccc(C(F)(F)F)c2)c2c(N)nn(C)c2n1 |  | > 100
